In patent US20210128615A1 (CHEMOTHERAPEUTISCHES FORSCHUNGSINSTITUT GEORG SPEYER HAUS, published 2021):

Target: T1, Interleukin-10 (IL-10) (human, UniProt P22301 19-178)
T1 construct: Recombinant human IL-10 was used in the ELISA, and IL-10 at 40 ng/mL in the STAT3 assay; also called recombinant human IL-10; rhIL-10
Assay: ELISA, immobilized IL-10

T1 sequence (P22301 19-178 limits assumed): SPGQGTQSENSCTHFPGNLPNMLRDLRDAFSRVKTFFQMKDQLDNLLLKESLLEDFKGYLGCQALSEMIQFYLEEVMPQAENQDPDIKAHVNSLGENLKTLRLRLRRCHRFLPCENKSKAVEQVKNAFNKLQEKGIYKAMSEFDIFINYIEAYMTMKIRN

B1: recombinant tetravalent anti-IL-10 mini-antibody (antibody, human IgG4)
chain: EVQLVESGGGLVQPGGSLRLSCAASGFSFATYGVHWVRQSPGKGLEWLGVIWRGGSTDYSAAFMSRLTISKDNSKNTVYLQMNSLRAEDTAVYFCAKQAYGHYMDYWGQGTSVTVSSGGGGSGGGGSGGGGSDVVMTQSPLSLPVTLGQPASISCRSSQNIVHSNGNTYLEWYLQRPGQSPRLLIYKVSNRFSGVPDRFSGSGSGTDFTLKISRVEAEDVGVYYCFQGSHVPWTFGQGTKVEIKASVRSPP[left out - human IgG4 Fc]GSGGGTSGEVQLVESGGGLVQPGGSLRLSCAASGFSFATYGVHWVRQSPGKGLEWLGVIWRGGSTDYSAAFMSRLTISKDNSKNTVYLQMNSLRAEDTAVYFCAKQAYGHYMDYWGQGTSVTVSSGGGGSGGGGSGGGGSDVVMTQSPLSLPVTLGQPASISCRSSQNIVHSNGNTYLEWYLQRPGQSPRLLIYKVSNRFSGVPDRFSGSGSGTDFTLKISRVEAEDVGVYYCFQGSHVPWTFGQGTKVEIK
notes: Disulfide-linked homodimer of scFv(BT-063)-hinge-CH2-CH3 (human IgG4)-scFv(BT-063); also called tetravalent anti-IL-10 antibody
binding result: binds
